# According to PubChem BioAssay AID686978 (National Center for Advancing Translational Sciences (NCATS), 2013):
# Values joined by “and” are separate entries in the source; they are usually repeats but may differ in a detail not shown here. Equal values may be shown once. Screen size: about 420,000 compounds; about 64,000 (15%) were called active. Inconclusive results, whose numbers are uncertain, are shown with a selection of clear calls. The call rests on the fitted dose curve; in most records, active means well fitted inhibition curve with a large enough effect; inconclusive means small, poorly fitted or top-dose-only effect; inactive means flat fitted curve, though single readings scatter. Potencies beside an inconclusive call are fits to weak or partial responses and may not hold up.
# Assay: qHTS for Inhibitors of human tyrosyl-DNA phosphodiesterase 1 (TDP1): qHTS in cells in absence of CPT; further: nearly all actives have a fitted effect of over 55% in size
# Details: DT40 Tdp1-/- hTDP1 cells, no CPT, ATP luminescence, 48 h; activity change, negative = growth inhibition: at 46.2 µM (top of the series)
# Summary of the method: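 No-CPT arm: Tdp1-/-;hTDP1 DT40 cells (400/well) plus compounds, incubated ≥48 hr at 37 °C. Readout CellTiter-Glo luminescence.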
# On the % scale 0 is the no-effect control and ±100 the full control effect; potency means the concentration at half of the fitted maximal effect; tags describe the fitted curve by direction and shape.
Structure (SMILES),Potency,"activity change, negative = growth inhibition"
Cc1ccc(Nc2nnc(-c3ccc(C)c(S(=O)(=O)N4CCOCC4)c3)c3ccccc23)c(C)c1,active: 16.4 µM,–
Cc1ccccc1-c1cc2nc(NCCOc3ccccc3Cl)n(C)c(=O)c2s1,"inconclusive: 23.1 µM [inhibitor, single point]",–
CCOC(=O)C1=C(C)NC(C)=C(C(=O)OCC)C1c1cc2ccc(C)cc2[nH]c1=O,"inconclusive: 20.6 µM [inhibitor, single point]",–
CCN(C(=O)c1cc(Cl)ccc1OC)c1ccccc1C,active: 20.6 µM,–
CC(C)c1nc2sc(C(=O)O)c(N)c2c2c1CCCC2,–,inactive: -18.2%
CCOc1cc(S(=O)(=O)N2CCC(c3nc4ccccc4s3)CC2)c(OCC)cc1S(=O)(=O)N1CCCCC1,"inconclusive: 8.2 µM [inhibitor, partial curve]",–
CCOc1cc2[nH]c(=S)n(C3CC3)c(=O)c2cc1OCC,"inconclusive: 25.9 µM [inhibitor, single point]",–
COc1ccc(C(O)Cn2ccsc2=NC(C)=O)cc1 (stereo not drawn),"inconclusive: 20.6 µM [inhibitor, partial curve, poor fit]",–
CCOc1ccc(C2NC(=O)C(C#N)=C(S)N2c2ccc(OC)cc2)cc1OC (stereo not drawn),"inconclusive: 32.6 µM [inhibitor, partial curve, poor fit]",–
Nc1cc(=O)[nH]c(SCc2ccc(Cl)cc2Cl)n1,active: 7.31 µM,–
Cc1cccc2c(/C=C/c3ccc(N(C)C)cc3)ccnc12,"inconclusive: 14.1 µM [inhibitor, single point]",–
Cc1ccc(-n2c(C)c(C)c3c(NCCN(C)C)ncnc32)cc1,–,inactive: -21.2%
CSc1ccccc1C(=O)NCc1nc(-c2cccc(NC(=O)c3ccoc3C)c2)oc1C,active: 20.6 µM,–
c1ccc(-c2cn3nc(-c4ccccc4)c(-c4ccccc4)nc3n2)cc1,"inconclusive: 14.6 µM [inhibitor, single point]",–
CC(C)(C)Nc1nc(Nc2ccc([N+](=O)[O-])cc2)nc(NC(C)(C)C)n1,active: 20.6 µM,–
C=CCOc1ccc2cccc(/C=N/NC(=O)c3cc4cc([N+](=O)[O-])ccc4s3)c2c1,"inconclusive: 8.2 µM [inhibitor, partial curve, poor fit]",–
CC(C)c1ccc(NC(=O)NC2CCN(CC(=O)Nc3cccc4ccccc34)CC2)cc1,"inconclusive: 18.4 µM [inhibitor, single point]",–
O=C(O)/C=C/C(=O)Nc1ccc(OC(F)(F)Cl)cc1,–,inactive: -19.2%
Cc1ccc(-c2nc3nc4ccccc4nc3n2Cc2ccco2)cc1,"inconclusive: 23.1 µM [inhibitor, partial curve]",–
CN(C)c1ccc(/C=C/c2ccnc3c(-c4ccccc4)cccc23)cc1,"inconclusive: 22.4 µM [inhibitor, single point]",–
N#Cc1cccc(-c2ccc3ncnc(NCCN4CCOCC4)c3c2)c1,"inconclusive: 29.1 µM [inhibitor, single point]",–
O=Nc1c(O)cc(O)c2ccccc12,"inconclusive: 16.4 µM [inhibitor, single point]",–
CCCCc1nc2cc(C(=O)N3CCCCC3CC(=O)OCC)ccc2o1 (stereo not drawn),"inconclusive: 29.1 µM [inhibitor, single point]",–

Structure (SMILES),Potency,"activity change, negative = growth inhibition"
COc1ccc(C(=O)NCCc2sc(-c3ccc(Cl)cc3)nc2C)c(OC)c1,"inconclusive: 20.6 µM [inhibitor, single point]",–
O=C(COC(=O)C1(c2ccc(Cl)cc2)CCCC1)Nc1ncc(C(F)(F)F)cc1Cl,"inconclusive: 18.4 µM [inhibitor, partial curve, poor fit]",–
Cc1ccc(C(=O)N/C(=C/c2cccs2)C(=O)N2CCCCC2)cc1,–,inactive: -18.2%
Cc1cccc(-n2ncc3c(N(C)Cc4ccccc4)ncnc32)c1,"inconclusive: 18.4 µM [inhibitor, single point]",–
CCOC(=O)c1cnc2cc(-c3ccc(C)cc3)nn2c1-c1ccccc1,"inconclusive: 11.6 µM [inhibitor, partial curve]",–
COc1ccc(C)cc1NC(=O)CSc1nc(=O)n(Cc2ccncc2)c2c1CCC2,"inconclusive: 29.1 µM [inhibitor, partial curve, poor fit]",–
C=Cc1ccc(CN2C(=O)N(c3ccc(CC)cc3)S(=O)(=O)c3ccccc32)cc1,"inconclusive: 14.6 µM [inhibitor, partial curve]",–
COc1ccc(C)cc1Nc1nc2cc(Cl)c(Cl)cc2nc1-n1nc(C)cc1C,–,inactive: 2.9%
Cn1ncc(Br)c1C(=O)NC12CC3CC(CC(C3)C1)C2,–,inconclusive: -34.7% [inhibitor]
O=C1c2cc(F)ccc2-n2c1nc1ccccc1c2=O,active: 0.366 µM,–
Cc1ccc(NC(=O)Cn2c(=O)n(-c3ccccc3)c(=O)c3c4c(sc32)CCCC4)cc1,"inconclusive: 9.2 µM [inhibitor, partial curve, poor fit]",–
COc1ccc(C)cc1NC(=O)NCc1ccc2c(c1)CCN2C(=O)c1ccccc1,active: 20.6 µM,–
C/C(=N\NC(=O)CC1N=C(Cc2ccccc2)NNC1=O)c1ccc(C)cc1 (stereo not drawn),"inconclusive: 20.6 µM [inhibitor, single point]",–
COc1cc(NC(=O)CN2C(=O)COc3ccc(S(=O)(=O)N4CCCCC4)cc32)cc(OC)c1,"inactive and inconclusive: 29.1 µM [inhibitor, single point]",–
CCOC(=O)c1c(S(=O)(=O)Nc2ccc(C)cn2)c(C)n(C)c1C,"inconclusive: 29.1 µM [inhibitor, single point]",–
N=c1c2c3c(sc2ncn1N)CCCC3,–,inactive: -20.3%
CCCN1C(=O)C(Cc2nc3ccccc3c(=O)n2-c2ccccc2)c2cc(C)ccc21 (stereo not drawn),"inactive and inconclusive: 18.4 µM [inhibitor, partial curve, poor fit]",–
CCc1cccc(N2C(=O)N(CC(=O)NCc3cccc(OC)c3OC)c3ccccc3S2(=O)=O)c1,"inconclusive: 23.1 µM [inhibitor, partial curve]",–
CC(C)CN(Cc1c(O)ccc2ccccc12)CC(C)C,"inconclusive: 18.4 µM [inhibitor, single point]",–
CC(=O)N(Cc1ccc(F)cc1)C1=C(NCCc2ccccc2)C(=O)c2ccccc2C1=O,active: 1.84 µM,–
CC(C)[C@H](NS(=O)(=O)c1ccccc1)C(=O)OCC(=O)NC1CCCCC1,"inconclusive: 29.1 µM [inhibitor, single point]",–
c1ccc(CSc2nnc(-c3ccccc3)c(-c3ccccc3)n2)cc1,"inconclusive: 23.1 µM [inhibitor, single point]",–
COC(=O)c1ccccc1NC(=S)N(Cc1ccc2c(c1)OCO2)Cc1cc2cc(C)ccc2[nH]c1=O,"inconclusive: 16.4 µM [inhibitor, single point]",–

Structure (SMILES),Potency,"activity change, negative = growth inhibition"
Cc1ccc(C)c(CN2C(=O)c3ccccc3S(=O)(=O)c3ccc(C(=O)N4CCN(c5ccccn5)CC4)cc32)c1,"inconclusive: 16.4 µM [inhibitor, partial curve]",–
COC(=O)c1ccccc1CCC(C)=O,active: 16.4 µM,–
Cc1ccc(Cn2ccc(NC(=O)c3cc(-c4cccc(Cl)c4)on3)n2)cc1,–,inactive: -29%
C=CCN(CC=C)Cc1cc(=O)oc2cc(OC)c(Cl)cc12,"inconclusive: 20.6 µM [inhibitor, single point]",–
C/C(=C\c1ccccc1)C(=O)NCc1ccco1,–,inactive: -13.6%
COc1cc(C(=O)NCCC(=O)NCCc2ccc(Cl)cc2)cc(OC)c1OC,"inconclusive: 29.1 µM [inhibitor, single point]",–
COC(=O)c1c(NC(=O)c2ccccc2F)sc(C(=O)N2CCOCC2)c1C,"inconclusive: 20.6 µM [inhibitor, partial curve]",–
Cc1nc(S(=O)(=O)Nc2ccccc2C(=O)NCC2CC2)cn1C,–,inactive: 7.18%
CCc1c(C)[nH]c2ccccc2c1=O,active: 20.6 µM,–
COc1ccc(C(=O)C(/C=N/O)=N/Nc2ccc(F)cc2)cc1,–,inactive: -28.7%
CC(=O)N1CCc2cc(S(=O)(=O)NCCC(=O)NCCc3ccc(Cl)cc3)ccc21,"inconclusive: 18.4 µM [inhibitor, single point]",–
COc1ccc(N2C(=O)CC(Sc3n[nH]c(-c4ccccc4)n3)C2=O)cc1 (stereo not drawn),active: 1.16 µM,–
COc1ccc(C2N(C(=O)N3CCOCC3)CCN2S(=O)(=O)c2ccc(C)cc2)cc1 (stereo not drawn),–,inactive: -9.63%
Clc1ccc(CNc2ncnc3nc[nH]c23)cc1,"inconclusive: 20 µM [inhibitor, single point] and inconclusive: 12.6 µM [inhibitor, partial curve]",–
COc1ccc(-c2cc(C#N)nc(N3CCN(C)CC3)n2)cc1,"inconclusive: 18.4 µM [inhibitor, single point]",–
COc1ccc(Br)cc1S(=O)(=O)N1CCCC1,active: 8.2 µM,–
O=[N+]([O-])c1ccc2c(c1)nc1n2CCCCC1,"inconclusive: 9.2 µM [inhibitor, partial curve]",–
C[C@H](CO)N1C[C@H](C)[C@@H](CN(C)C(=O)Nc2ccc3c(c2)OCO3)Oc2ccc(NC(=O)Cn3cnnn3)cc2C1=O,–,inactive: -7.82%
O=C(CSc1ncc2c(n1)-c1ccccc1N(Cc1ccccc1)S2(=O)=O)Nc1ccccc1,–,inactive: 3.17%
CCCCNC(=O)CC1N=C2c3ccccc3N=C(SCC(=O)Nc3cccc(OC)c3)N2C1=O (stereo not drawn),–,inactive: -17.7%
O=C1N=c2ccccc2=C1c1sc(=S)n(Cc2ccccc2Cl)c1O,"inconclusive: 29.1 µM [inhibitor, single point]",–
COc1cc(/C=C/C(=O)NC(C)CCc2ccccc2)cc(OC)c1OC (stereo not drawn),"inconclusive: 29.1 µM [inhibitor, single point]",–
